Reference: PubChem BioAssay AID1240 (Sanford-Burnham Center for Chemical Genomics, 2008)
The whole screen tested about 50,000 compounds, of which about 800 (1.6%) showed an effect of 50% or more. This is one part of the list.

The compounds below were run against Bcl-2-like protein 10 (Homo sapiens) (UniProt Q9HD36) (assay: TR3 peptide-Bcl-B binding displacers, biochemical primary FP assay, phenotype converters (AID 1240;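 further: 0% = Bcl-B with tracer peptide and DMSO and 100% = tracer peptide lacking Bcl-B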)). Conditions: GST-Bcl-B / FITC-TR3 peptide fluorescence polarization; stronger effect = higher value; compound at 3.75 mg/L.
Sequence of UniProt Q9HD36 (Q9HD36 whole entry, looked up): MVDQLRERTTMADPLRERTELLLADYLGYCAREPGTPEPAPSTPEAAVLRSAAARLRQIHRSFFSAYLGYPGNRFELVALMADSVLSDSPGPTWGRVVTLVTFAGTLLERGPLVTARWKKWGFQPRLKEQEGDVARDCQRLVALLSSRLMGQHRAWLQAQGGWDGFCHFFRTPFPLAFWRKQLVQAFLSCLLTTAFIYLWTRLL

SMILES	displacement
CCOc1ccc(S(=O)(=O)N(CC(=O)Nc2cccnc2)c2ccc(C)cc2)cc1	-6.4%
CCOC(=O)C(Cc1cccc([N+](=O)[O-])c1)SC#N (centres undefined)	11.2%
O=C1C=C/C(=N\S(=O)(=O)c2ccc(Cl)c([N+](=O)[O-])c2)c2ccccc21	24.8%
CCOC(=O)C1=CN(c2ccc(C)cc2)C=C(C(=O)OCC)C1c1ccccc1OC	5.4%
CCc1ccccc1NC(=O)CN(c1ccc(C)cc1)S(C)(=O)=O	9.9%
O=C(COc1ccccc1[N+](=O)[O-])Nc1ccc2oc(-c3ccccc3F)nc2c1	2.9%
COc1ccc(C2=C/C(=C\c3ccc(OC)c([N+](=O)[O-])c3)C(=O)O2)cc1	2.7%
O=[N+]([O-])c1ccc(NCCCNS(=O)(=O)c2ccc(Cl)cc2)c(Cl)c1	-1.4%
CCc1ccc(N2CC(C(=O)NCc3ccccc3OC)CC2=O)cc1 (centres undefined)	-0.3%
COc1ccc(/C=C/C(=O)c2cccc(Br)c2)c(OC)c1	-9.7%
CCOc1ccc(N2C(=O)CC(Sc3nc4ccc(OCC)cc4s3)C2=O)cc1 (centres undefined)	8.8%
CCC(C)N1C(=O)C(=O)N(C2CCCCC2)C1=O (centres undefined)	14.9%
CC(=O)Nc1ccc(-c2nc(-c3ccc4c(c3)C(=O)c3cc([N+](=O)[O-])ccc3-4)c(-c3ccccc3)[nH]2)cc1	7.1%
C[n+]1cc(N)cc2ccccc21	19.7%
O=C(Nc1cccc2ccccc12)c1cc([N+](=O)[O-])ccc1Cl	-7.3%
O=C(O)c1cc(O)c2ccccc2c1O	7.8%
Cc1ccsc1/C=C1\SC(=S)N(CC(C)C)C1=O	14.1%
COc1cc(-c2c(C#N)c(N)n3c(nc4ccccc43)c2C#N)ccc1O	14.7%
COc1ccc(C2=C/C(=C\c3ccc(OC(C)=O)cc3OC(C)=O)C(=O)O2)cc1	-3.3%
Cc1ccc(OCC(=O)Nc2ccc(N(C)C)cc2)c(Br)c1	12.2%
C(=NNc1cc(N2CCOCC2)nc(N2CCOCC2)n1)c1cccs1	3.8%
Cc1ccc(C2(c3ccc(C)cc3)CC2C(=O)Nc2ccncc2)cc1 (centres undefined)	4.1%
C=CCN1C(=O)C2C3c4ccccc4C(c4ccccc43)C2C1=O (centres undefined)	7.3%
Cc1ccc(-c2cc3nc4c(c(=O)n3[nH]2)SCC4)cc1	-4.6%
C#CCn1cc(/C=C(/C#N)C(=O)Nc2ccc(Cl)cc2)c2ccccc21	-4.5%
O=C1NC(=S)N(c2cccc(Cl)c2)C(=O)/C1=C\c1ccc(N2CCCC2)cc1	-14.4%
CCCOc1ccc(/C=C2\C(=O)NN(c3ccccc3)C2=O)cc1OC	12.5%
COC(=O)N(C)CCCC1(C)C(=O)N(C)c2ccc(O)cc21 (centres undefined)	5.3%
O=C1c2cccc3cccc(c23)C(=O)N1/N=C/c1ccccc1	-15.3%
